Test results taken from PubChem BioAssay AID2107 (National Center for Advancing Translational Sciences (NCATS), 2009).
In all, about 240,000 compounds went through this assay and about 20 (0.008%) were called active. This list was built around the results that the source calls inconclusive (neither active nor inactive); the mix of calls is not that of the screen. The call rests on the fitted dose curve; in most records, active means well fitted inhibition curve with a large enough effect; inconclusive means small, poorly fitted or top-dose-only effect, or effect the other way; inactive means flat fitted curve, though single readings scatter. No potency is given beside an inconclusive call; the fits are too rough.

Molecular target: Alpha-galactosidase A (Homo sapiens) (UniProt P06280)
Assay: qHTS Assay for Inhibitors and Activators of Human alpha-Galactosidase From Spleen Homogenate
Conditions: 4MU-alpha-Gal fluorescence, 40 min; series mostly up to 80 µM
Method in brief: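 qHTS titration in buffer at pH 5.0. Alpha-galactosidase activity in spleen homogenate was measured via 4-methylumbelliferone release from 1 mM fluorogenic substrate after 40 min at 37C and a pH 10 stop. AC50 came from Hill fits of control-normalized data.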
Potency means the concentration at half of the fitted maximal effect; tags describe the fitted curve by direction and shape.

Sequence of UniProt P06280 (P06280 whole entry, looked up): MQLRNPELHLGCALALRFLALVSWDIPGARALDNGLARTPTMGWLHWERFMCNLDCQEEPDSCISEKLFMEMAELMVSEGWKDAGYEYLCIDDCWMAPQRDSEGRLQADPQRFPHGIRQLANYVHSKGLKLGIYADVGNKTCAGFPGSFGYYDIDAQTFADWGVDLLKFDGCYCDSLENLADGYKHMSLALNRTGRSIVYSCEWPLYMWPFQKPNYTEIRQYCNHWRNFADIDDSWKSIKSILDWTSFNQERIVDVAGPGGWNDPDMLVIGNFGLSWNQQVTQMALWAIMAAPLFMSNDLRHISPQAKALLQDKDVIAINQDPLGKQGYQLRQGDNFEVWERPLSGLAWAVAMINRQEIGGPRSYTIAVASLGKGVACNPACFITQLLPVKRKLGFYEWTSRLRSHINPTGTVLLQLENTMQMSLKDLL

| SMILES | Potency |
| --- | --- |
| CC[C@H]1C(c2cccc(C)c2)=NN(c2ccccc2)[C@@H]1CO | inconclusive [activator, partial curve] |
| CCCCCn1c(=O)[nH]c2cc(C(=O)N3CCN(CC)CC3)ccc2c1=O | inconclusive [activator, single point] |
| CCCCCn1c(=O)[nH]c2cc(C(=O)NCCN(CC)CC)ccc2c1=O | inconclusive [activator, partial curve] |
| O=C(c1ccco1)N1CCN(c2nc(C3CC3)nc3sc4c(c23)CCCC4)CC1 | inactive |
| C=CCn1c(-c2cccs2)nc2nc3ccccc3nc21 | inconclusive [activator, partial curve] |
| CCOC(=O)c1c(C)[nH]c(C(C)=O)c1C | inactive |
| Cc1ccc(S(=O)(=O)c2c(N)n(CCCO)c3nc4ccccc4nc23)cc1 | inconclusive [activator, partial curve] |
| CCc1c(C(=O)Nc2ncn(Cc3cccc(C)c3)n2)csc1C | inconclusive [inhibitor, partial curve, poor fit] |
| COc1cccc(-c2nc3cc(C)ccc3o2)c1 | inconclusive [inhibitor, partial curve] |
| c1ccc(CN2c3ccccc3-c3nc4ccccc4n3C2c2ccccn2)cc1 (configuration not stated) | inconclusive [activator, partial curve] |
| O=C(CC1Sc2ccccc2NC1=O)OCc1cc(=O)oc2cc(O)ccc12 (configuration not stated) | inconclusive [activator, partial curve] |
| CC1CN(C(=O)c2ccccc2C(=O)c2ncc[nH]2)CC(C)O1 (configuration not stated) | inconclusive [activator, single point] |
| Nc1nc[nH]c(=O)c1N=Cc1ccccc1 | inconclusive [activator, partial curve] |
| CSc1ccc(-c2cc(=O)c3ccccc3o2)cc1 | inconclusive [activator, single point] |
| CN(C)C(=O)c1ccc(-c2cncnc2NCc2cccnc2)cc1 | inconclusive [inhibitor, partial curve] |
| COc1ncc2nc(-c3ccccc3)c(=O)n(CCC#N)c2n1 | inconclusive [activator, single point] |
| CC1CN(S(=O)(=O)c2cccc(-c3cn4cccnc4n3)c2)CC(C)O1 (configuration not stated) | inconclusive [activator, partial curve, poor fit] |
| COC(=O)c1cccc(C23CC4(C2)[C@H](CN(CC2CCCCC2)[C@@H]4c2ccccc2)C3c2ccc(Cl)nc2)c1 (some centres not stated) | inactive |
| CCCCc1cc(=O)oc2c(CN3CCCC3)c(O)ccc12 | inconclusive [activator, partial curve] |
| COCCCn1c(CCC(=O)O)ccc1-c1ccc(F)cc1 | inconclusive [activator, partial curve] |
| Oc1ccc2ccccc2c1C=Nc1ccccc1-c1nc2ccccc2[nH]1 | inconclusive [activator, partial curve] |

| SMILES | Potency |
| --- | --- |
| CCOc1ccc(NC(=S)Nc2ccc(OCc3ccccc3)cc2)cc1 | inactive |
| N=c1c(S(=O)(=O)c2ccccc2)cc2c(=O)n3ccccc3nc2n1CC1CCCO1 (configuration not stated) | inconclusive [activator, partial curve, poor fit] |
| N#C/C(C(=O)c1ccccc1)=C1/SC=C(N)N1c1ccccc1 | inactive |
| C=C(C)Cn1c(SCC(=O)NCc2ccco2)nc2sc3c(c2c1=O)CCC3 | inconclusive [activator, single point] |
| O=C(NCCCNc1ccc([N+](=O)[O-])cc1)C(F)(F)F | inconclusive [inhibitor, single point] |
| COc1ccccc1[C@H]1C(c2cccc(Cl)c2)=NN(c2ccccc2)[C@@H]1CO | inconclusive [activator, partial curve] |
| CCOCCCn1c(=NC(C)=O)c(C#N)cc2c(=O)n3ccccc3nc21 | inconclusive [activator, partial curve] |
| COc1ccc(CNC(=O)CSc2nc(-c3ccccc3)cc(-c3cccs3)c2C#N)cc1 | inconclusive [activator, single point] |
| Cc1cc(=O)oc2cc(OCc3nnc(-c4ccccc4Br)o3)ccc12 | inconclusive [activator, partial curve] |
| N#CC1CC(c2ccccc2)Nc2cc(Cl)ccc2N1 (configuration not stated) | inconclusive [activator, single point] |
| CS(=O)c1ccccc1-c1nc(-c2cccc(Cl)c2)no1 (configuration not stated) | inconclusive [inhibitor, single point] |
| N#Cc1cccc(-c2nc3cnc(N4CCOCC4)nc3n(C3CC3)c2=O)c1 | inconclusive [activator, single point] |
| Cc1ccc2c(=O)c3cccc(CC(=O)O)c3oc2c1C | inconclusive [activator, single point] |
| CCOc1ccc(C(=O)NCCN2CCCC2)cc1 | inconclusive [inhibitor, partial curve] |
| Cc1cccn2c(=O)c(/C=C(\C#N)C(=O)NC3CCS(=O)(=O)C3)c(N3CCC(C)CC3)nc12 (configuration not stated) | inconclusive [activator, full curve] |
| COc1ccc2c(c1)c1ncn(Cc3ccccn3)c(=O)c1n2C | inconclusive [activator, single point] |
| CN1CC2(Cc3c1ccc1ccccc31)C(=O)OC(C)(C)OC2=O | inconclusive [activator, single point] |
| COc1cccc(Nc2ncc3nc(C)c(=O)n(C4CC4)c3n2)c1 | inactive |
| COc1ccc(-c2csc(NC(=S)NC(=O)/C=C/c3ccco3)n2)cc1OC | inactive |
| NS(=O)(=O)c1ccc(CCNC(=O)Nc2ccc(Cl)c(Cl)c2)cc1 | inactive |
| COC(=O)C1=C(C(=O)OC)C2C(C)=CC(C)=CN2C(C(=O)OC)=C1C(=O)OC (configuration not stated) | inconclusive [activator, single point] |
